Sequences and labels used below:
B1: aroE; numbered along this chain (parent)
chain: METYAVFGNPIAHSKSPFIHQQFAQQLNIEHPYGRVLAPINDFINTLNAFFSAGGKGANVTVPFKEEAFARADELTERAALAGAVNTLMRLEDGRLLGDNTDGVGLLSDLERLSFIRPGLRILLIGAGGASRGVLLPLLSLDCAVTITNRTVSRAEELAKLFAHTGSIQALSMDELEGHEFDLIINATSSGISGDIPAIPSSLIHPGIYCYDMFYQKGKTPFLAWCEQRGSKRNADGLGMLVAQAAHAFLLWHGVLPDVEPVIKQLQEELSA
B2: ilvC; a variant is named by its letters at X, in order (parent)
chain: MANYFNTLNLRQQLAQLGKCRFMGRDEFADGASYLQGKKVVIVGCGAQGLNQGLNMRDSGLDISYALRKEAIAEKRASWRKATENGFKVGTYEELIPQADLXINLTPDKQHSDVVRTVQPLMKDGAALGYSHGFNIVEVGEQIRKDITVXXVAPKCPGTEVREEYKRGFGVPTLIAVHPENDPKGEGMAIAKAWAAATGGHRAGVLESSFXAEVKSDLMGEQTIXCGMLQAGSLLCFDKLVEEGTDPAYAEKLIQFGWETITEALKQGGITLXXDRLSNPAKLRAYALSEQLKEIMAPLFQKHMDDIISGEFSSGMMADWANDDKKLLTWREETGKTAFETAPQYEGKIGEQEYFDKGVLMIAMVKAGVELAFETMVDSGIIEESAYYESLHELPLIANTIARKRLYEMNVVISDTAEYGNYLFSYACVPLLKPFMAELQPGDLGKAIPEGAVDNGQLRDVNEAIRSHAIEQVGKKLRGYMTDMKRIAVAG

This note sets out measurements from the supplement of paper PMC11876631.

± gives the standard deviation of the averaged measurements. Laboratory Escherichia coli strains with one amino-acid change in an essential protein, pooled on minimal glucose agar with carbenicillin or gentamicin at twice the control MIC (plus kanamycin and chloramphenicol for the plasmids), 48 h. Fold change of barcode share against drug-free plates; higher = less susceptible. Active = above 20 in both replicates (the paper's putatively resistant). '<' = one read or none on drug, '>' = one read or none on a drug-free plate. Shares are relative, so most strains fall below 1 when a few take over. Listed are strains with at least 15 reads on both drug-free plates, and hits; most hits rest on fewer reference reads. Replicate rank correlation about 0.5. Edits are read from barcodes.

In one data set the parent is B1. The data set can be described thus: barcode share on antibiotic plates over drug-free plates; higher = less susceptible. The settings on record: with Escherichia coli (laboratory strain); antibiotic: carbenicillin; 2× MIC (3.1 µg/mL). The procedure: (§1)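 A pool of E. coli strains, each edited to carry one amino-acid change in an essential protein, was grown for 48 h on minimal glucose agar with or without antibiotic; strain barcodes were sequenced; mean of two replicates.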
V242D: the “fold change of barcode share” value is > 74.8 [active].

As for V242A, the “fold change of barcode share” value is 0.989 ± 0.056.

For V242P, the “fold change of barcode share” value came to 1.21 ± 0.46.

For the variant F249D, the “fold change of barcode share” value was 0.841 ± 0.3.

F249Q: the “fold change of barcode share” value stood at 1.72 ± 0.58.

Turning to F249W, the “fold change of barcode share” value was determined as 0.993 ± 0.21.

As to F249A, the “fold change of barcode share” value is 1.12 ± 0.21.

Consider L139A, for which the “fold change of barcode share” value worked out at 0.916 ± 0.11.

For the variant L139P, the “fold change of barcode share” value is 0.979 ± 0.39.

With L139Q, the “fold change of barcode share” value turned out to be 1.41 ± 0.18.

As to L139D, the “fold change of barcode share” value is 1.33 ± 0.032.

Consider L139W, for which the “fold change of barcode share” value stood at 1.47 ± 0.083.

Turning to L107A, the “fold change of barcode share” value came out at 0.72 ± 0.038.

With L107D, the “fold change of barcode share” value was found to be 0.515 ± 0.24.

As for L107P, the “fold change of barcode share” value was 0.85 ± 0.34.

As for L107Q, the “fold change of barcode share” value was 1.01 ± 0.13.

As for L107W, the “fold change of barcode share” value was 0.648 ± 0.39.

In the case of L123A, the “fold change of barcode share” value was determined as 0.838 ± 0.39.

With I122P, the “fold change of barcode share” value came out at 2.03 ± 0.97.

On to L266D, for which the “fold change of barcode share” value turned out to be 0.293 ± 0.11.

Turning to L266A, the “fold change of barcode share” value came to 0.293 ± 0.071.

L266P: the “fold change of barcode share” value was determined as 0.277 ± 0.042.

On to L266W, for which the “fold change of barcode share” value was 0.27 ± 0.06.

Take L266Q: the “fold change of barcode share” value was determined as 0.382 ± 0.41.

The data set is the same for the next values; noted with them: with Escherichia coli (laboratory strain); antibiotic: gentamicin; 2× MIC (MIC 0.45 µg/mL).
With V242A, the “fold change of barcode share” value was 0.0129 ± 0.012.

As for V242P, the “fold change of barcode share” value came out at 0.0264 ± 0.023.

Regarding I185A, the “fold change of barcode share” value was 0.0223 ± 0.00041.

For the variant L135P, the “fold change of barcode share” value is under 0.0226.

In the case of L135Q, the “fold change of barcode share” value is under 0.0208.

On to F249D, for which the “fold change of barcode share” value was 0.0174 ± 0.0063.

On to F249P, for which the “fold change of barcode share” value turned out to be 0.0278 ± 0.017.

Turning to F249Q, the “fold change of barcode share” value came out at 0.0265 ± 0.025.

As for F249W, the “fold change of barcode share” value was under 0.00925.

With F249A, the “fold change of barcode share” value was found to be 0.013 ± 0.0029.

Consider L139A, for which the “fold change of barcode share” value came out at 0.00703 ± 0.0024.

L139P: the “fold change of barcode share” value is under 0.00565.

For the variant L139Q, the “fold change of barcode share” value turned out to be 0.016 ± 0.0037.

In the case of L139D, the “fold change of barcode share” value was under 0.00581.

For L139W, the “fold change of barcode share” value stood at 0.0039 ± 0.00065.

In the case of L107A, the “fold change of barcode share” value was 0.0062 ± 0.0057.

Regarding L107D, the “fold change of barcode share” value is 0.00598 ± 0.0023.

Regarding L107P, the “fold change of barcode share” value was 0.00982 ± 0.0047.

Consider L107Q, for which the “fold change of barcode share” value is 0.00681 ± 0.0051.

With L107W, the “fold change of barcode share” value was under 0.00218.

Regarding I122P, the “fold change of barcode share” value was found to be 0.0314 ± 0.0023.

For the variant L266D, the “fold change of barcode share” value was 0.00934 ± 0.0066.

For L266A, the “fold change of barcode share” value came out at 0.00822 ± 0.0062.

With L266P, the “fold change of barcode share” value is under 0.00875.

As for L266W, the “fold change of barcode share” value is under 0.0023.

For the variant L266Q, the “fold change of barcode share” value was found to be 0.0193 ± 0.021.

In a further data set the parent is B2. Described as above. The following applies: with Escherichia coli (laboratory strain); antibiotic: carbenicillin; 2× MIC (3.1 µg/mL). The protocol: as §1
Take AVMVLMM: the “fold change of barcode share” value amounted to 0.544 ± 0.21.

In the case of WVMVLMM, the “fold change of barcode share” value was determined as 0.556 ± 0.17.

On to VAMVLMM, for which the “fold change of barcode share” value was determined as 1.39 ± 0.35.

Take VVMVLPM: the “fold change of barcode share” value was 0.93 ± 0.066.

As for VQMVLMM, the “fold change of barcode share” value worked out at 0.398 ± 0.12.

As for VVMPLMM, the “fold change of barcode share” value amounted to 0.936 ± 0.011.

Consider VVQVLMM, for which the “fold change of barcode share” value was found to be 0.813 ± 0.4.

With VVWVLMM, the “fold change of barcode share” value is 28.6 [active].

Regarding VVMVLQM, the “fold change of barcode share” value came to 0.832 ± 0.043.

Take VVMVAMM: the “fold change of barcode share” value was 0.434 ± 0.1.

In the case of VVMWLMM, the “fold change of barcode share” value is 0.933 ± 0.27.

With VVMVPMM, the “fold change of barcode share” value came out at 1.11 ± 0.12.

For the variant VVMVLMA, the “fold change of barcode share” value came out at 0.693 ± 0.18.

Consider VVMVLMD, for which the “fold change of barcode share” value is > 41.4 [active].

For VVMVLMW, the “fold change of barcode share” value was determined as 0.799 ± 0.53.

Consider VVMVLMQ, for which the “fold change of barcode share” value was found to be 0.861 ± 0.17.

For the variant VVMALMM, the “fold change of barcode share” value amounted to 0.995 ± 0.41.

With VVMVDMM, the “fold change of barcode share” value is 0.713 ± 0.048.

VVMVQMM: the “fold change of barcode share” value is 0.888 ± 0.12.

VVPVLMM: the “fold change of barcode share” value was > 38.4 [active].

Take VVDVLMM: the “fold change of barcode share” value was determined as 0.928 ± 0.15.

VVMVLWM: the “fold change of barcode share” value was > 34.4 [active].

As for VVMVWMM, the “fold change of barcode share” value was > 48.3 [active].

As to VVMDLMM, the “fold change of barcode share” value amounted to 1.16 ± 0.016.

For the variant VVMQLMM, the “fold change of barcode share” value amounted to 1.29 ± 0.061.

Consider VPMVLMM, for which the “fold change of barcode share” value turned out to be 1.1 ± 0.25.

As to VVMVLMM I103W, the “fold change of barcode share” value amounted to 0.495 ± 0.011.

Turning to VVMVLMM I103A, the “fold change of barcode share” value is 0.581 ± 0.12.

In the case of VVMVLMM I103Q, the “fold change of barcode share” value came out at 0.407 ± 0.097.

Turning to VVMVLMM I103P, the “fold change of barcode share” value came out at 0.777 ± 0.2.

As to VVMVLAM, the “fold change of barcode share” value was 0.649 ± 0.2.

Turning to VVAVLMM, the “fold change of barcode share” value was 1.15 ± 0.84.

Staying with this data set, now noted: with Escherichia coli (laboratory strain); antibiotic: gentamicin; 2× MIC (MIC 0.45 µg/mL).
As for AVMVLMM, the “fold change of barcode share” value was under 0.0144.

Consider WVMVLMM, for which the “fold change of barcode share” value is under 0.0105.

For VAMVLMM, the “fold change of barcode share” value worked out at 0.0115 ± 0.0057.

For the variant VVMVLPM, the “fold change of barcode share” value came out at 0.0204 ± 0.01.

With VQMVLMM, the “fold change of barcode share” value came to 0.0227 ± 0.024.

On to VVMPLMM, for which the “fold change of barcode share” value came to 0.0112 ± 0.0022.

For VVQVLMM, the “fold change of barcode share” value turned out to be 0.0122 ± 0.002.

Regarding VVMVLQM, the “fold change of barcode share” value is 0.00846 ± 0.0027.

With VVMVAMM, the “fold change of barcode share” value stood at 0.0129 ± 0.0065.

VVMWLMM: the “fold change of barcode share” value is 0.192 ± 0.27.

In the case of VVMVLMA, the “fold change of barcode share” value came out at 0.0148 ± 0.0074.

Regarding VVMVLMW, the “fold change of barcode share” value worked out at 0.0307 ± 0.0023.

Consider VVMVLMQ, for which the “fold change of barcode share” value was determined as 0.00826 ± 0.0059.

Regarding VVMALMM, the “fold change of barcode share” value came out at 0.0245 ± 0.019.

With VVMVDMM, the “fold change of barcode share” value was found to be 0.0163 ± 0.011.

Take VVMVQMM: the “fold change of barcode share” value was found to be 0.0409 ± 0.051.

Regarding VVMDLMM, the “fold change of barcode share” value amounted to 0.00813 ± 0.0026.

Consider VVMQLMM, for which the “fold change of barcode share” value came out at 0.0435 ± 0.05.

For VPMVLMM, the “fold change of barcode share” value is under 0.00444.

VVMVLMM I103W: the “fold change of barcode share” value was determined as 0.00896 ± 0.0012.

Take VVMVLMM I103A: the “fold change of barcode share” value is under 0.0112.

Take VVMVLMM I103Q: the “fold change of barcode share” value was 0.03119 ± 0.00027.

VVMVLMM I103P: the “fold change of barcode share” value was under 0.00911.

Regarding VVMVLAM, the “fold change of barcode share” value stood at 0.0269 ± 0.024.

On to VVAVLMM, for which the “fold change of barcode share” value turned out to be 0.015 ± 0.013.
